Test results as given in the BET-seq Pho4 binding data (Le et al. 2018).
The other results are listed elsewhere or left out. The energies were worked out here from pooled read counts, against the library average; single values are noisy.

Each sequence was assayed against T1, Pho4 (S. cerevisiae) (UniProt P07270) (assay: relative binding free energy (BET-seq); higher = weaker binding). Settings: reference: library average.
T1 sequence: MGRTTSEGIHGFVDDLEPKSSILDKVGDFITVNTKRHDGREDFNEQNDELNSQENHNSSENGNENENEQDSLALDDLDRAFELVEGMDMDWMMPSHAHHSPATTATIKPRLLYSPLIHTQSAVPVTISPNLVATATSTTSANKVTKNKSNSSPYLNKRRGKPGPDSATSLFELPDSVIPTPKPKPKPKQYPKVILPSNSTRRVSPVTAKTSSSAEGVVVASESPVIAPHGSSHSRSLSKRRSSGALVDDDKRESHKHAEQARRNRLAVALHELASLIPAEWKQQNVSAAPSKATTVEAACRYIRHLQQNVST

Row | Sequence | relative binding free energy
1 | CGGAGCACGTGTGTAG | -0.21 kcal/mol
2 | GGTGTCACGTGAATAA | 0.27 kcal/mol
3 | ATTGTCACGTGGTTAT | 0.03 kcal/mol
4 | CTTGTCACGTGGTAGT | 0 kcal/mol
5 | GCGCTCACGTGATGTT | 0.49 kcal/mol
6 | TATGTCACGTGCAGGT | -0.01 kcal/mol
7 | TTGGACACGTGTGGCA | 0 kcal/mol
8 | GATAACACGTGTGGGC | 0.09 kcal/mol
9 | TATACCACGTGATTGT | 0.07 kcal/mol
10 | AGGTCCACGTGTGTTG | 0.01 kcal/mol
11 | CGAATCACGTGGTATG | 0.11 kcal/mol
12 | TTTTTCACGTGAAGTT | 0.34 kcal/mol
13 | ATTTACACGTGTTACT | 0.12 kcal/mol
14 | TGTTGCACGTGAATGC | 0.24 kcal/mol
15 | CGTGTCACGTGTATGG | 0.05 kcal/mol
16 | CTAAACACGTGGTGGT | 0.01 kcal/mol
17 | GAAGTCACGTGAGGAT | 0.31 kcal/mol
18 | TATGACACGTGTCGTG | -0.08 kcal/mol
19 | AGTTACACGTGATCAG | 0.26 kcal/mol
20 | TGACGCACGTGTGATT | 0.14 kcal/mol
21 | TTTGGCACGTGGTCAA | -0.34 kcal/mol
22 | GTGTGCACGTGTAAGG | 0.07 kcal/mol
23 | GATGGCACGTGCTGTT | -0.01 kcal/mol

Row | Sequence | relative binding free energy
24 | TGTGGCACGTGAGTTC | 0.22 kcal/mol
25 | CTGGGCACGTGGGTTC | -0.27 kcal/mol
26 | AAGGGCACGTGTGGGA | 0 kcal/mol
27 | AATAGCACGTGTTGAT | -0.02 kcal/mol
28 | GAGATCACGTGTGTTT | 0.16 kcal/mol
29 | AGGCCCACGTGGGTTG | -0.21 kcal/mol
30 | TGAAACACGTGGTGTA | 0.01 kcal/mol
31 | GGGCTCACGTGATGAT | 0.48 kcal/mol
32 | CTGTGCACGTGGGCGA | -0.15 kcal/mol
33 | AGTGGCACGTGGATTC | -0.1 kcal/mol
34 | GGGGGCACGTGTGGGT | 0.01 kcal/mol
35 | GGGCGCACGTGATTGT | 0.08 kcal/mol
36 | TAAGGCACGTGAGTGC | 0.25 kcal/mol
37 | ACAGACACGTGGTGTT | 0.03 kcal/mol
38 | GAGTGCACGTGGAGGT | 0.05 kcal/mol
39 | AAGTGCACGTGTAGTT | -0.03 kcal/mol
40 | TTTTTCACGTGTGCGG | 0.27 kcal/mol
41 | TGTAGCACGTGCTTAT | -0.18 kcal/mol
42 | TTTCACACGTGGCGTG | 0.02 kcal/mol
43 | TGTATCACGTGCGAGG | 0.13 kcal/mol
44 | TCATCCACGTGTTGGT | 0.06 kcal/mol
45 | GGTTGCACGTGATGGC | 0.35 kcal/mol
46 | TGTCGCACGTGGTCGG | -0.15 kcal/mol

Row | Sequence | relative binding free energy
47 | TTGTCCACGTGATTGT | 0.19 kcal/mol
48 | TGTGTCACGTGGTAGT | 0.05 kcal/mol
49 | TCGGGCACGTGTGTGT | -0.06 kcal/mol
50 | CGGTTCACGTGCGTAT | 0.26 kcal/mol
51 | TATTACACGTGATATG | 0.21 kcal/mol
52 | AATCTCACGTGGTGGG | 0.23 kcal/mol
53 | AGTTTCACGTGCAATT | 0.33 kcal/mol
54 | GTATTCACGTGTTTAA | 0.26 kcal/mol
55 | TGTTGCACGTGCCAGG | -0.04 kcal/mol
56 | AGGCACACGTGAGTGG | 0.16 kcal/mol
57 | AAATTCACGTGTTTTC | 0.36 kcal/mol
58 | TTTATCACGTGGGCAG | -0.01 kcal/mol
59 | GTATCCACGTGGTTTA | 0.17 kcal/mol
60 | ATACGCACGTGTGGTA | -0.05 kcal/mol
61 | CTTGGCACGTGTAGGA | -0.02 kcal/mol
62 | GTGTTCACGTGGTGGT | 0.29 kcal/mol
63 | GGGATCACGTGGGGAT | 0.1 kcal/mol
64 | GCTGGCACGTGTGTTA | 0.06 kcal/mol
65 | TTATGCACGTGAGTCT | 0.22 kcal/mol
66 | TAAGTCACGTGTGAGA | 0.32 kcal/mol
67 | GGAGGCACGTGGGTGG | -0.11 kcal/mol
68 | TAGTACACGTGTTTAG | -0.08 kcal/mol
69 | GTGTGCACGTGAAGGA | 0.23 kcal/mol

Row | Sequence | relative binding free energy
70 | GTGACCACGTGCGGGG | -0.16 kcal/mol
71 | AGGAACACGTGGGCGT | -0.1 kcal/mol
72 | ATGATCACGTGGGGCT | -0.02 kcal/mol
73 | GATGTCACGTGAGTGG | 0.3 kcal/mol
74 | TTGGACACGTGGAGTT | 0.16 kcal/mol
75 | GCGGACACGTGATGTT | 0.39 kcal/mol
76 | GGCATCACGTGTGGGC | 0.31 kcal/mol
77 | GTTGTCACGTGACAGT | 0.2 kcal/mol
78 | TTAATCACGTGCGAGG | 0.17 kcal/mol
79 | CGGGTCACGTGCGTTG | 0.07 kcal/mol
80 | CGGTACACGTGGTGGG | 0.01 kcal/mol
81 | GGGATCACGTGTTGAT | 0.22 kcal/mol
82 | TATGTCACGTGGGAAG | 0.05 kcal/mol
83 | GGGTACACGTGGAGGC | 0.14 kcal/mol
84 | GGCAGCACGTGGAGCG | 0.01 kcal/mol
85 | CTAGTCACGTGCGTTT | 0.12 kcal/mol
86 | GCTAGCACGTGGGGGT | -0.21 kcal/mol
87 | CTGGACACGTGAGGGA | 0.18 kcal/mol
88 | TATTACACGTGCATGG | 0.08 kcal/mol
89 | ATGGTCACGTGTAATT | 0.14 kcal/mol
90 | TCGTTCACGTGGATGG | 0.29 kcal/mol
91 | AGTGTCACGTGGAAAA | 0.27 kcal/mol
92 | TTAGCCACGTGGTGAG | -0.18 kcal/mol

Row | Sequence | relative binding free energy
93 | TTCTTCACGTGTTTTA | 0.22 kcal/mol
94 | CGGGGCACGTGAGTTT | 0.09 kcal/mol
95 | GAGGGCACGTGGAAGC | 0.09 kcal/mol
96 | AGTATCACGTGGCAGT | 0.16 kcal/mol
97 | ATAGTCACGTGGTCAA | 0.04 kcal/mol
98 | TTATACACGTGGTTTT | 0.03 kcal/mol
99 | AGTAACACGTGTTTAT | -0.11 kcal/mol
100 | TCTGGCACGTGGGTTA | -0.14 kcal/mol
101 | TATCACACGTGGGTGT | -0.15 kcal/mol
102 | AGTGTCACGTGAATAG | 0.22 kcal/mol
103 | ATGTTCACGTGGATAG | 0.17 kcal/mol
104 | ATAGTCACGTGTCGGG | 0.2 kcal/mol
105 | GATTGCACGTGTAGGT | 0.07 kcal/mol
106 | TTTATCACGTGAATGT | 0.39 kcal/mol
107 | GTGGTCACGTGCTCTG | -0.05 kcal/mol
108 | TCTTGCACGTGGTGTA | -0.08 kcal/mol
109 | AAGGTCACGTGTGATA | 0.18 kcal/mol
110 | CTCGGCACGTGGTTTT | -0.12 kcal/mol
111 | TGAGTCACGTGCTGTG | 0.08 kcal/mol
112 | TTTTACACGTGATTTC | 0.17 kcal/mol
113 | GTTTGCACGTGTTTTG | 0.13 kcal/mol
114 | TTAAACACGTGTCTGG | 0.04 kcal/mol
115 | CAATTCACGTGTGTGG | 0.37 kcal/mol
